PMC12820563
This is one part of the list. The list includes weakly bound sequences.

molecular target: T1, MBP-FoxP3dN (UniProt Q99JB6); test: PD-seq (MBP pull-down with sequencing); details: 20 mM Tris-HCl pH 7.5, 100 mM NaCl, 1.5 mM MgCl2, 0.4 uM protein, 0.1 uM dsDNA library, 30 min, room temperature, amylose pull-down; high values mean tight binding; double strand, one strand shown
T1 sequence: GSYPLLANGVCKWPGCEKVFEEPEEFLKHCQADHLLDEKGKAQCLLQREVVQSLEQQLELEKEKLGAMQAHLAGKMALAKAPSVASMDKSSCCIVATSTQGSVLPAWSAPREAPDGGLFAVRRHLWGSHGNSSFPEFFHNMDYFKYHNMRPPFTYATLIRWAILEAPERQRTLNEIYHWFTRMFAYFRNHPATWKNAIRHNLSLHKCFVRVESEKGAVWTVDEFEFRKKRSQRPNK

Sequence	binding signal (RPM ratio (pull-down/input))
GATGATTGTTCTCCCAGCTGATGAATTCCATACTTCGAGTAAACAAATTTTCCTAATCTTTCTGTTCAAGCGCCATCTAC	0.374
GATGATTGTTCTCCCAGCTGATGAATTGTCCTAGTCGAGTAAACAAATTTTCCTAATCTTTCTGTTCAAGCGCCATCTAC	0.264
GATGATTGTTCTCCCAGCTGATGAATTAACGGGGTCGAGTAAACAAATTTTCCTAATCTTTCTGTTCAAGCGCCATCTAC	0.225
GATGATTGTTCTCCCAGCTGATGAATTTCAGCTATCGAGTAAACAAATTTTCCTAATCTTTCTGTTCAAGCGCCATCTAC	0.567
GATGATTGTTCTCCCAGCTGATGAATTTAGGTTATCGAGTAAACAAATTTTCCTAATCTTTCTGTTCAAGCGCCATCTAC	1.01
GATGATTGTTCTCCCAGCTGATGAATTTATCTTATCGAGTAAACAAATTTTCCTAATCTTTCTGTTCAAGCGCCATCTAC	0.747
GATGATTGTTCTCCCAGCTGATGAATTGGTCATGTCGAGTAAACAAATTTTCCTAATCTTTCTGTTCAAGCGCCATCTAC	0.716
GATGATTGTTCTCCCAGCTGATGAATTTTGAGAGTCGAGTAAACAAATTTTCCTAATCTTTCTGTTCAAGCGCCATCTAC	0.465
GATGATTGTTCTCCCAGCTGATGAATTGTTGACGTCGAGTAAACAAATTTTCCTAATCTTTCTGTTCAAGCGCCATCTAC	4.46
GATGATTGTTCTCCCAGCTGATGAATTTAAACCATCGAGTAAACAAATTTTCCTAATCTTTCTGTTCAAGCGCCATCTAC	0.379
GATGATTGTTCTCCCAGCTGATGAATTAATGTTATCGAGTAAACAAATTTTCCTAATCTTTCTGTTCAAGCGCCATCTAC	1.82
GATGATTGTTCTCCCAGCTGATGAATTGGTGGCATCGAGTAAACAAATTTTCCTAATCTTTCTGTTCAAGCGCCATCTAC	1.28
GATGATTGTTCTCCCAGCTGATGAATTAATCCTCTCGAGTAAACAAATTTTCCTAATCTTTCTGTTCAAGCGCCATCTAC	0.285
GATGATTGTTCTCCCAGCTGATGAATTACAAAAATCGAGTAAACAAATTTTCCTAATCTTTCTGTTCAAGCGCCATCTAC	0.298
GATGATTGTTCTCCCAGCTGATGAATTGTATGCGTCGAGTAAACAAATTTTCCTAATCTTTCTGTTCAAGCGCCATCTAC	2.49
GATGATTGTTCTCCCAGCTGATGAATTAAACCAATCGAGTAAACAAATTTTCCTAATCTTTCTGTTCAAGCGCCATCTAC	0.347
GATGATTGTTCTCCCAGCTGATGAATTGCCCGCCTCGAGTAAACAAATTTTCCTAATCTTTCTGTTCAAGCGCCATCTAC	0.73
GATGATTGTTCTCCCAGCTGATGAATTATTATCCTCGAGTAAACAAATTTTCCTAATCTTTCTGTTCAAGCGCCATCTAC	0.758
GATGATTGTTCTCCCAGCTGATGAATTCCTTCCTTCGAGTAAACAAATTTTCCTAATCTTTCTGTTCAAGCGCCATCTAC	0.209
GATGATTGTTCTCCCAGCTGATGAATTCTGGCTATCGAGTAAACAAATTTTCCTAATCTTTCTGTTCAAGCGCCATCTAC	0.529
GATGATTGTTCTCCCAGCTGATGAATTCCCGCGGTCGAGTAAACAAATTTTCCTAATCTTTCTGTTCAAGCGCCATCTAC	0.227

Sequence	binding signal (RPM ratio (pull-down/input))
GATGATTGTTCTCCCAGCTGATGAATTGACTCATTCGAGTAAACAAATTTTCCTAATCTTTCTGTTCAAGCGCCATCTAC	0.462
GATGATTGTTCTCCCAGCTGATGAATTGGTATTTTCGAGTAAACAAATTTTCCTAATCTTTCTGTTCAAGCGCCATCTAC	1.36
GATGATTGTTCTCCCAGCTGATGAATTCTTAGGGTCGAGTAAACAAATTTTCCTAATCTTTCTGTTCAAGCGCCATCTAC	0.197
GATGATTGTTCTCCCAGCTGATGAATTGCGAATATCGAGTAAACAAATTTTCCTAATCTTTCTGTTCAAGCGCCATCTAC	0.927
GATGATTGTTCTCCCAGCTGATGAATTACAAATCTCGAGTAAACAAATTTTCCTAATCTTTCTGTTCAAGCGCCATCTAC	0.509
GATGATTGTTCTCCCAGCTGATGAATTCGGGTAGTCGAGTAAACAAATTTTCCTAATCTTTCTGTTCAAGCGCCATCTAC	0.543
GATGATTGTTCTCCCAGCTGATGAATTCATTAACTCGAGTAAACAAATTTTCCTAATCTTTCTGTTCAAGCGCCATCTAC	0.317
GATGATTGTTCTCCCAGCTGATGAATTAAGCCCTTCGAGTAAACAAATTTTCCTAATCTTTCTGTTCAAGCGCCATCTAC	0.868
GATGATTGTTCTCCCAGCTGATGAATTAAGTCGATCGAGTAAACAAATTTTCCTAATCTTTCTGTTCAAGCGCCATCTAC	0.325
GATGATTGTTCTCCCAGCTGATGAATTCTCAAAGTCGAGTAAACAAATTTTCCTAATCTTTCTGTTCAAGCGCCATCTAC	0.191
GATGATTGTTCTCCCAGCTGATGAATTTACCACCTCGAGTAAACAAATTTTCCTAATCTTTCTGTTCAAGCGCCATCTAC	0.616
GATGATTGTTCTCCCAGCTGATGAATTCCTGCAATCGAGTAAACAAATTTTCCTAATCTTTCTGTTCAAGCGCCATCTAC	2.22
GATGATTGTTCTCCCAGCTGATGAATTTCGGTGTTCGAGTAAACAAATTTTCCTAATCTTTCTGTTCAAGCGCCATCTAC	0.955
GATGATTGTTCTCCCAGCTGATGAATTTGCTGCTTCGAGTAAACAAATTTTCCTAATCTTTCTGTTCAAGCGCCATCTAC	3.05
GATGATTGTTCTCCCAGCTGATGAATTGAGCGCGTCGAGTAAACAAATTTTCCTAATCTTTCTGTTCAAGCGCCATCTAC	1.08
GATGATTGTTCTCCCAGCTGATGAATTGCAAATCTCGAGTAAACAAATTTTCCTAATCTTTCTGTTCAAGCGCCATCTAC	0.778
GATGATTGTTCTCCCAGCTGATGAATTGCGAGAATCGAGTAAACAAATTTTCCTAATCTTTCTGTTCAAGCGCCATCTAC	0.446
GATGATTGTTCTCCCAGCTGATGAATTCAAGCGATCGAGTAAACAAATTTTCCTAATCTTTCTGTTCAAGCGCCATCTAC	0.414
GATGATTGTTCTCCCAGCTGATGAATTCTTACAGTCGAGTAAACAAATTTTCCTAATCTTTCTGTTCAAGCGCCATCTAC	0.257
GATGATTGTTCTCCCAGCTGATGAATTTACCCAATCGAGTAAACAAATTTTCCTAATCTTTCTGTTCAAGCGCCATCTAC	0.58
GATGATTGTTCTCCCAGCTGATGAATTGCGTGAGTCGAGTAAACAAATTTTCCTAATCTTTCTGTTCAAGCGCCATCTAC	1.11

Sequence	binding signal (RPM ratio (pull-down/input))
GATGATTGTTCTCCCAGCTGATGAATTAACAAGATCGAGTAAACAAATTTTCCTAATCTTTCTGTTCAAGCGCCATCTAC	0.24
GATGATTGTTCTCCCAGCTGATGAATTGAGTGCCTCGAGTAAACAAATTTTCCTAATCTTTCTGTTCAAGCGCCATCTAC	0.963
GATGATTGTTCTCCCAGCTGATGAATTTGGTTTATCGAGTAAACAAATTTTCCTAATCTTTCTGTTCAAGCGCCATCTAC	3.48
GATGATTGTTCTCCCAGCTGATGAATTTCGAGGTTCGAGTAAACAAATTTTCCTAATCTTTCTGTTCAAGCGCCATCTAC	0.415
GATGATTGTTCTCCCAGCTGATGAATTCGAATAGTCGAGTAAACAAATTTTCCTAATCTTTCTGTTCAAGCGCCATCTAC	0.369
GATGATTGTTCTCCCAGCTGATGAATTCTTCTGTTCGAGTAAACAAATTTTCCTAATCTTTCTGTTCAAGCGCCATCTAC	0.31
GATGATTGTTCTCCCAGCTGATGAATTTTAACATTCGAGTAAACAAATTTTCCTAATCTTTCTGTTCAAGCGCCATCTAC	0.699
GATGATTGTTCTCCCAGCTGATGAATTCCCTAAGTCGAGTAAACAAATTTTCCTAATCTTTCTGTTCAAGCGCCATCTAC	0.178
GATGATTGTTCTCCCAGCTGATGAATTTACTTACTCGAGTAAACAAATTTTCCTAATCTTTCTGTTCAAGCGCCATCTAC	2.83
GATGATTGTTCTCCCAGCTGATGAATTATCCCGCTCGAGTAAACAAATTTTCCTAATCTTTCTGTTCAAGCGCCATCTAC	0.212
GATGATTGTTCTCCCAGCTGATGAATTGTGACACTCGAGTAAACAAATTTTCCTAATCTTTCTGTTCAAGCGCCATCTAC	3.18
GATGATTGTTCTCCCAGCTGATGAATTTTTTGGGTCGAGTAAACAAATTTTCCTAATCTTTCTGTTCAAGCGCCATCTAC	0.193
GATGATTGTTCTCCCAGCTGATGAATTAACGGGCTCGAGTAAACAAATTTTCCTAATCTTTCTGTTCAAGCGCCATCTAC	0.226
GATGATTGTTCTCCCAGCTGATGAATTACCAAAGTCGAGTAAACAAATTTTCCTAATCTTTCTGTTCAAGCGCCATCTAC	0.212
GATGATTGTTCTCCCAGCTGATGAATTGTTAGGATCGAGTAAACAAATTTTCCTAATCTTTCTGTTCAAGCGCCATCTAC	1.02
GATGATTGTTCTCCCAGCTGATGAATTAAAGCCTTCGAGTAAACAAATTTTCCTAATCTTTCTGTTCAAGCGCCATCTAC	1.74
GATGATTGTTCTCCCAGCTGATGAATTACGCCTCTCGAGTAAACAAATTTTCCTAATCTTTCTGTTCAAGCGCCATCTAC	5.99
GATGATTGTTCTCCCAGCTGATGAATTTGATATCTCGAGTAAACAAATTTTCCTAATCTTTCTGTTCAAGCGCCATCTAC	3.49
GATGATTGTTCTCCCAGCTGATGAATTGGCTTCTTCGAGTAAACAAATTTTCCTAATCTTTCTGTTCAAGCGCCATCTAC	0.562
GATGATTGTTCTCCCAGCTGATGAATTGATATGTTCGAGTAAACAAATTTTCCTAATCTTTCTGTTCAAGCGCCATCTAC	1.34
GATGATTGTTCTCCCAGCTGATGAATTGGGCTGTTCGAGTAAACAAATTTTCCTAATCTTTCTGTTCAAGCGCCATCTAC	0.719
